The results in this text go back to the RNAGym collection of RNA variant scans (doi:10.1093/nar/gkz1192).

Read counts are not given, so values of variants with three or more changes are uncertain.

To fix the notation:
B1: CPEB3 Ribozyme (parent)
chain: UAACAGGGGGCCACAGCAGAAGCGUUCACGUCGCAGCCCCUGUCAGAUUCUGGUGAAUCUGCGAAUUCUGCUGUAUAUCUC

In this series the parent is B1. The experiment in a line: self-cleavage, relative activity (ratio to wild type); higher = more cleavage; in vitro, sequencing. In a few lines:
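Barcoded CPEB3 ribozyme mutants, produced by rounds of error-prone PCR, self-cleaved while being transcribed with T7 RNA polymerase for 5 hours at 37°C and during a subsequent 15 min DNase I step before EDTA was added. Sequencing of template-switched cDNA on Illumina gave cleaved and total reads, and DNA sequencing assigned barcodes to variants. Each variant's relative activity is its cleaved/total read fraction divided by the unmutated ribozyme's fraction, averaged across three batches. A variant needed a minimum of 5 reads.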
Take A5C A47G U51C A64G U72A: the self-cleavage stood at 0.27.

As for C4U A5G U41C C44U, the self-cleavage amounted to 0.6. To C4U A20U U72A belongs 0.29; to A5C A15G U49G U51C A57G A75G, 0.17.

Regarding A3G U26C G61A, the self-cleavage was 0.85. To A3U U60A U66G U69C U72A belongs 0.41; to A3U A21G U41A A47U A64G U67C U78C, 0.08. The result for A5C A13G C38A U43C U72C reads 0.47. To A3U A20U U31A A57G belongs 0.25. Turning to A3G U43A A57G U72C, the self-cleavage worked out at 1.08. The result for C4A C12U G55A A57G reads 1.1. As to A3G U41C A65C U72C U78A, the self-cleavage was 0.3. Consider A3U A15G A20G A21G C32U A64G U78C, for which the self-cleavage amounted to 0.04.

For A3U C12U U67C, the self-cleavage was determined as 0.56. To A3G U26A U31C C38A U58G G61A belongs 0.08. With A3G U48C U51C U66C A77G, the self-cleavage came to 0.11. The result for C4A U26C U41A A57U reads 0.27; that for A3U A13U U26A U58C U60A, 0.43. For the variant A3U A13U C27A U51G U76A, the self-cleavage was found to be 0.13.

For the variant A3U A20G U43C U66C, the self-cleavage was determined as 0.17. The result for A3U G9U U60C A77U reads 0.37. As to A5C A21G A57G, the self-cleavage was found to be 0.6. With A3U U31C C40U U48C G70U, the self-cleavage was 0.16.

Regarding A3G U31A C40U U51C A77G, the self-cleavage was 0.15. To A3U A5G A13C A21G U25C belongs 0.74; to C4A A15G A18U A20C C44U U48C, 0.08. For A3U A5C G7C A20U U67C U69C U72G, the self-cleavage stood at 0.

Consider A3U G9U U78C, for which the self-cleavage came out at 0.09. C4G C12G A28G A35G U41C U72C: the self-cleavage amounted to 0.32.

For A3U G9A A13G A20U U31A U78A, the self-cleavage amounted to 0.07. The result for A3U A13G A35G reads 1.12. As for C4U U43C A77G, the self-cleavage amounted to 0.63. To A3U A13G U54C belongs 0.4; to A5C G7U U31C U41A U72C, 0.08. In the case of A3U A35G U43C A65U, the self-cleavage is 0.29. As to C4G A45G G63A U66A, the self-cleavage is 0.34.

With A3G U54C A64U, the self-cleavage was 0.31. On to A3U A13U U25C U48C, for which the self-cleavage turned out to be 0.13.

For A3G U41C U54C U60A A64U, the self-cleavage was determined as 0.35. The result for A3U U60C U67A U78C reads 0.4; that for A3U C40U U60C, 0.28. On to A3G U51C A77G, for which the self-cleavage came to 1.15. The result for A5C A28G U60C A64G reads 0.35. The result for A3G U25C A47G U60G U66C A77U reads 0.14; that for A3U A18G U25C, 0.3.

For the variant A3U U31C U80C, the self-cleavage amounted to 1.04. The result for A3G U60C U78A reads 0.26. As to A3U A13U U31C A64G, the self-cleavage is 0.91. In the case of A3G U49C A57G U72G, the self-cleavage turned out to be 0.46. To A3G U26C G33A U58C belongs 0.16; to A3U U66C U67C, 0.34. A3U U54A U60C: the self-cleavage was 0.49. On to A5C A57G A64U C68U U69A U72C, for which the self-cleavage amounted to 0.31.

As to A3G U26C U58C, the self-cleavage worked out at 0.45. Regarding C4U U25C C29U A45G U54A U78C, the self-cleavage worked out at 0.31.

For the variant A5C A13G A45G, the self-cleavage amounted to 0.81. On to A3G U48C U54A U60C A75G, for which the self-cleavage was found to be 0.09.

In the case of A5C C38A U43C A45C U72A U80C, the self-cleavage turned out to be 0.05.

In the case of A3U C11G A18U C38A, the self-cleavage is 0.11. With C4U G7U C29U A45U, the self-cleavage was determined as 0.13.

With C4G A20G A56G A64G U69C, the self-cleavage stood at 0.15. Consider A3G U31G U49A U67C U69A, for which the self-cleavage was 0.14. To A5C A18U A35C G42A U78C belongs 0.06; to A5C A56G U60C A77G, 0.28; to A3U G10A C11G A47C A57U, 0.04. Turning to A3G U48C A64G U72C, the self-cleavage came to 0.25. The result for A3G U31C U72A U76C reads 0.91; that for A3G U26C U41A U51A U80C, 0.21. To A5C A28G U48C C50G U67C U72A belongs 0.11. To A3G U41A U43C A56G belongs 0.3; to A5C G6A G7A U78C, 0.3.

In the case of A5C C17U G30A A35G A47G U67A C71U, the self-cleavage is 0.05. To A5C C29G A57G U66C U72A belongs 0.1.

Regarding C4U A18U U51C A57G A65G U74A, the self-cleavage was determined as 0.53. To A3G U31C U43C A65G belongs 0.35; to C4U A5G C27G, 0.15; to A5C A35G U43C U51C A65U, 0.22. A3U A5G G7A U43A U54A: the self-cleavage worked out at 0.13. In the case of C4U G6U A35U U49C A75C U78C, the self-cleavage stood at 0.08. The result for A3G U31C U60C U80C reads 0.25.

Turning to C4A A5G U72A, the self-cleavage amounted to 0.35. The result for C4U G10A A47G A56G U78C reads 0.23; that for A3U G42A U43A U76A U78C, 0.26. For A3U A45G U80C, the self-cleavage was determined as 0.74. As to C4U A15G U25C U31A U43A U51C, the self-cleavage was 0.12. To A5C C11U A20G C62U belongs 0.33; to A3U A15U U48C U54C U67C, 0.12.

In the case of A3G U43C A47G U48C A56U A64U, the self-cleavage worked out at 0.25. Regarding A3G U43C A45G U72C, the self-cleavage was 0.83. For the variant A3U A18U C32U U49C U66C U74C, the self-cleavage came to 0.31.

On to A5C C11G A13G U26C C44A A45U G55A, for which the self-cleavage amounted to 0.09. A3U A35G U51A A57G U69A A77G: the self-cleavage worked out at 1.08. To A3U U31A A57U belongs 0.27; to A3U G10U U51A U58C G70A U80C, 0.06; to A5C C29G C40U U80C, 0.16.

C4G G9U A20G U25C C39A U51C U72A: the self-cleavage amounted to 0.05.

Turning to A3U C29U U54C A64U, the self-cleavage is 0.17.

For A3U A15U A28G U72C U76A, the self-cleavage stood at 0.58. To A3G U49A U74C belongs 1.03. To A3U U41G A45G U49C U80A belongs 0.47; to A3G U72A G73A, 1.29; to C4U U54C A57U, 0.42. To A3U C17A A56U U80C belongs 0.09; to A5C A28G C62U A64G U78A, 0.14. Consider A3U C23A A45C U72C, for which the self-cleavage stood at 0.3. Take A3U C4U C12U A18U A45G A64G: the self-cleavage came to 0.48. To C4G A64G U72A U78C belongs 0.53; to A3G U25C G52A, 0.15.

With C4G A5G C12U U25C U26C A45U, the self-cleavage was determined as 0.35.

Regarding A3U C17A U67A, the self-cleavage was 0.35. Regarding C4A G9A C12U A15U U54C, the self-cleavage came to 0.98. The result for A3U U25C A65G reads 0.59; that for A3U G9C A15G U31C U43C A77G, 0.11; that for C4U A20G C29U U31C U51A, 0.35. As for A5C A13G A20G C38U U43C U72C U78C, the self-cleavage came to 0.18.

On to A3G U49C U72C U78C, for which the self-cleavage is 0.55.

Consider A3U U31A U51C U67C U72C, for which the self-cleavage was found to be 0.22. On to A5C C12A A64G, for which the self-cleavage was 1.02. The result for A3U U26A U43C reads 0.55; that for A3U C11G A20G U25A A47U A57U, 0.31; that for A3U A57U U66C, 0.32.

As to A3G U41A U54C, the self-cleavage is 0.5. The result for C4A A45U U58C U66C U69A A75U reads 0.2. To A3U C17U U26C belongs 0.31; to C4U G33A A35G, 0.91; to C4A U41C U51C, 1.24. On to C4U A18U A65G, for which the self-cleavage turned out to be 0.41. As to A3U A20G U41A U43C, the self-cleavage worked out at 0.47. The result for A5C C29G A45G reads 0.39. To A5C C29U G61A U69A U78A belongs 0.09; to A3U G33U U60C U72A, 0.1. On to A3U A15U A35G, for which the self-cleavage was 1.23. To A3U U54C C79U belongs 1.18. To A5C A13G A21G A28U C37A U67C belongs 0.09. The result for A3G U26G C29G U72G reads 0.24; that for C4U U60A U74A, 1.17. Consider C4U A15G U78C, for which the self-cleavage was 1.11. The result for A5C G6A A47G reads 0.58; that for A3U G19A A20G U31C U43C, 0; that for A3U G9A U25C U74C, 0.11. Regarding C4A A35U C40U U43A A57G, the self-cleavage turned out to be 0.2.

On to C4A C11A G52A A56U A64U U72C, for which the self-cleavage was 0.09. As to A3U G8C U26C U72C, the self-cleavage turned out to be 0.38. The result for A3G U60A A64U U72A reads 0.26. Take A5C G6U U60C: the self-cleavage was determined as 0.13. On to A3G U41C U72A, for which the self-cleavage came to 1.01. With C4U A28U U54A C62U, the self-cleavage was 0.39.

On to A3U A28C A56G, for which the self-cleavage amounted to 0.59.

A3G U26C U31C C62U: the self-cleavage worked out at 0.33. The result for A3G U51A G52A A57G A77U reads 1.14.

For A3G U41A A56G U67A, the self-cleavage was determined as 0.21. Regarding A3G U51C U72C, the self-cleavage was determined as 0.87. As to A3U A35U U43A A45G U58C, the self-cleavage was 0.25. To C4U A13G U54C U80C belongs 1.09; to A3U A15U A35G U41C C59A A64U, 0.21. To C4G A18U U26A A28G U58C U66C belongs 0.08; to C4U A20G A28G A35U C37A U41C U66C, 0.14; to A3U C14U U25C U48C, 0.38.

As for C4U A28U U48C, the self-cleavage is 0.6. The result for C4G A18G C62U reads 0.29; that for A3U A56G U67C A77U, 0.48. As to A3U A21C U60A U69C U72C U80C, the self-cleavage was found to be 0.08.

C4G U43A G52A G73A: the self-cleavage turned out to be 1.27. The result for A5C C40U U51A reads 0.56; that for C4A A56G U58A U60A, 0.39. Consider A3U G33U A64G U69A, for which the self-cleavage came out at 0.11. As for A3U A13G U26C A35G, the self-cleavage stood at 0.2.
